# Measured values: PubChem BioAssay AID504333 (National Center for Advancing Translational Sciences (NCATS), 2011)
# Hit rate of the full screen: of about 360,000 compounds, about 16,000 (4.4%) were called active. This list was built around the results that the source calls inconclusive (neither active nor inactive); the mix of calls is not that of the screen. Calls follow the shape of the dose curve; as a rule, active = well fitted inhibition curve with a large enough effect; inconclusive = small, poorly fitted or top-dose-only effect; inactive = no such curve, though single readings can be large or run the other way. A potency beside an inconclusive call is a rough fit, not a confirmed value.
# Target: Bromodomain adjacent to zinc finger domain protein 2B (Homo sapiens) (UniProt Q9UIF8)
# Assay: qHTS Assay for Inhibitors of BAZ2B; also: nearly all actives have a fitted effect of over 60% in size
# Conditions: AlphaScreen BAZ2B-H3K14Ac peptide displacement; series mostly up to 114 µM
# Procedure, shortened: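 Protein-peptide AlphaScreen: BAZ2B 50 nM, b-H3K14Ac 50 nM, 1x PBS pH 7.4 + 0.01% Tween-20. Preincubation 30 min RT; cpd 30 min RT (top 110 uM); beads 20 min RT, light-protected.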
# Potency is read from the fitted curve at half-maximal effect; tags tell the direction and shape of the fitted curve.
# Chain of UniProt Q9UIF8 (Q9UIF8 whole entry, looked up, the tested form may be a part): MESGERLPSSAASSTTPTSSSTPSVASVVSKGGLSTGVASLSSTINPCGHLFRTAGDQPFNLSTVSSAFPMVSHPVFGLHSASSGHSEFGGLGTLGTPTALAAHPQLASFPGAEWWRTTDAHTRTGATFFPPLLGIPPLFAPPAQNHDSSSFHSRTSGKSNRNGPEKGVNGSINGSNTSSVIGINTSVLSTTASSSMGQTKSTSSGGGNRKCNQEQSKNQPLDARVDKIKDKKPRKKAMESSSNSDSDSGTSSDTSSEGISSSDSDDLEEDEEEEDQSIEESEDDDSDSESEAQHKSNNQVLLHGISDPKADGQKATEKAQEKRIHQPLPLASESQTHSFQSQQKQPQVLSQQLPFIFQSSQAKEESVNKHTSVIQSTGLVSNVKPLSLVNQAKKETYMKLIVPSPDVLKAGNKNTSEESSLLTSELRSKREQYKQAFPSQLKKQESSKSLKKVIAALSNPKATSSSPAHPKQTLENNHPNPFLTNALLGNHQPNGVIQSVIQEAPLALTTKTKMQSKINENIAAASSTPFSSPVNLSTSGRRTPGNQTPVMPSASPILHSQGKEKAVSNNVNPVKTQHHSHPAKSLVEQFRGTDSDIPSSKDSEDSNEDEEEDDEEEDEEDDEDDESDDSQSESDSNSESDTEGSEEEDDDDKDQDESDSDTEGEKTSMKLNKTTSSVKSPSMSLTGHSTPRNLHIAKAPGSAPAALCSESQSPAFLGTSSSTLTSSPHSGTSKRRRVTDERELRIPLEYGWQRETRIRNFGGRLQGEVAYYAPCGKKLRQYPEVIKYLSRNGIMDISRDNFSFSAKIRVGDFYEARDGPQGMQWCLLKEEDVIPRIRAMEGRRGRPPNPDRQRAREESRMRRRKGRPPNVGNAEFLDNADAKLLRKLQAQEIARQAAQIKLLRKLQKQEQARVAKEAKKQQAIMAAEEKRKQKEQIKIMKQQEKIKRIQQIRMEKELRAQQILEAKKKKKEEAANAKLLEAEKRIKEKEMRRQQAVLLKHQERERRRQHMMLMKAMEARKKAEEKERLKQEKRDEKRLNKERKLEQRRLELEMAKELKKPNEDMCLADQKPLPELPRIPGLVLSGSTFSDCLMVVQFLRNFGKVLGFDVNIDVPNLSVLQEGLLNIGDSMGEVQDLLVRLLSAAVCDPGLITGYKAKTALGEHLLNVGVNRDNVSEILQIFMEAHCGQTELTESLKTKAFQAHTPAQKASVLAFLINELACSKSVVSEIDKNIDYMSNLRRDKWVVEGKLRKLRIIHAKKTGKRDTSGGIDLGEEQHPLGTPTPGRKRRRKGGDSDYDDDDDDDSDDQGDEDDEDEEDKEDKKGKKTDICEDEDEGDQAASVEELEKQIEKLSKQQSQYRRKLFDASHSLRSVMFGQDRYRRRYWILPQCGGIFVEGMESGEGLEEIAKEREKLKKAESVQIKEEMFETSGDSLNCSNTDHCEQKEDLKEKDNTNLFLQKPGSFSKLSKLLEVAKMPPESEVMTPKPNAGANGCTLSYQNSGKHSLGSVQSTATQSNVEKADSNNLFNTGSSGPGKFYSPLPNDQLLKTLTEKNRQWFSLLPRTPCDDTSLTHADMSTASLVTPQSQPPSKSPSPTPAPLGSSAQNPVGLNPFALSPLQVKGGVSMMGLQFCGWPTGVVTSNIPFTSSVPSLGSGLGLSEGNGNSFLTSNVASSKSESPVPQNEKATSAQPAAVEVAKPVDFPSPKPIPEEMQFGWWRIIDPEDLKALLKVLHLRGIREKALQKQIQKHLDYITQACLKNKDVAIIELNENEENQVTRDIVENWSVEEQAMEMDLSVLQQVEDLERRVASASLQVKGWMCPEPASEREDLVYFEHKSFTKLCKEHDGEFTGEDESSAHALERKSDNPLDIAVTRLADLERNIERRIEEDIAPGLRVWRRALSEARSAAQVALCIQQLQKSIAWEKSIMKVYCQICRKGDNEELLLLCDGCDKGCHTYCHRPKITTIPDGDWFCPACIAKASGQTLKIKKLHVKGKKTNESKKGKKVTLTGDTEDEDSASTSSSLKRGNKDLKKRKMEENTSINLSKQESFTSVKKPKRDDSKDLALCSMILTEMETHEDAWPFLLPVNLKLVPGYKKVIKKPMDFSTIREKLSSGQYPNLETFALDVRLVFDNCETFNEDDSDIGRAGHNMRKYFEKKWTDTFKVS
row,Compound,Potency
1,Cc1ccc2c(c1)-c1nc3ccccc3cc1C2=NC1CCCCC1,"inconclusive: 79.4 µM [inhibitor, single point]"
2,Cc1ccc(Cn2ncc3c(NN)ncnc32)cc1,active: 50.1 µM
3,CCc1ccc(N2CSC3=C(C#N)C(c4cccs4)CC(=O)N3C2)cc1 (configuration not stated),"inconclusive: 44.7 µM [inhibitor, partial curve]"
4,Cc1nc2ccc(C(=O)OCc3ccccc3Br)cc2nc1C,inactive
5,CO/N=C\CC(=O)Nc1ccc(Cl)c(Cl)c1,inactive
6,Cc1ccc(-n2nc(C(=O)N(C)Cc3ccccc3)c3c4ccccc4n(C)c3c2=O)cc1,inactive
7,COCCn1c(C)cc(C(=O)COC(=O)c2n[nH]c3ccccc23)c1C,"inconclusive: 79.4 µM [inhibitor, single point]"
8,COc1ccc(C)cc1NC(=O)C(OC(=O)c1ccc([N+](=O)[O-])o1)c1ccccc1 (configuration not stated),"inconclusive: 35.5 µM [inhibitor, full curve]"
9,CSC(=S)N/N=C/c1c[nH]c2ccccc12,active: 35.5 µM
10,CC(C)c1ccc(NC(=O)c2ccc3c(O)c(S(=O)(=O)c4ccccc4)c(=O)[nH]c3c2)cc1,"inconclusive: 70.8 µM [inhibitor, partial curve]"
11,c1ccc2c(c1)oc1c(N3CCN(Cc4ccc5c(c4)OCO5)CC3)ncnc12,"inconclusive: 35.5 µM [inhibitor, full curve]"
12,COc1cc2cc(C(=O)O)[nH]c2c(OC)c1OC,"inconclusive: 6.31 µM [inhibitor, full curve, poor fit]"
13,CCCc1cc(=O)[nH]c2nnc(SCC(=O)Nc3cccc(NC(C)=O)c3)n12,inactive
14,N#Cc1c(SCC(N)=O)nc2c(c1-c1ccncc1)CCCC2,inactive
15,CC(=O)N(C1=C(Cl)C(=O)c2ccccc2C1=O)c1ccc(C(=O)O)cc1,active: 28.2 µM
16,CCOC(=O)c1noc2ncnc(NCc3ccccc3OC)c12,inactive
17,COc1ccc2nc(C)cc(NCCN3CCOCC3)c2c1,inactive
18,Cc1ccc(C2=NN(C(=S)Nc3ccccc3)C(c3ccco3)C2)cc1 (configuration not stated),"inconclusive: 79.4 µM [inhibitor, single point]"
19,Cc1ccc(S(=O)(=O)/N=C2/C=C(Sc3ncn[nH]3)C(=O)c3ccccc32)c(C)c1,active: 44.7 µM
20,CSc1cccc(NC(=S)N(CCCN2CCCC(C)C2)Cc2cccs2)c1 (configuration not stated),"inconclusive: 25.1 µM [inhibitor, partial curve]"
21,O=C(CCN1CCN(Cc2ccccc2)CC1)Nc1ccc(OCc2ccccc2)cc1,"inconclusive: 70.8 µM [inhibitor, single point]"
22,Cc1ccccc1C(=O)N(Cc1ccc(N(C)C)cc1)CC1CCCO1 (configuration not stated),"inconclusive: 39.8 µM [inhibitor, partial curve]"
23,Cc1cc(SCc2ccc(Cl)cc2Cl)nc(=O)[nH]1,"inconclusive: 50.1 µM [inhibitor, partial curve]"
24,CCN1CCC2(CC1)C(C#N)=C(N)Oc1c2sc2nc(C)cc(C)c12,inactive

row,Compound,Potency
1,O=C(Nc1nccs1)C1CCCN1S(=O)(=O)c1ccc(F)cc1 (configuration not stated),inactive
2,CCOC(=O)N1CCc2c(sc(NCc3cccs3)c2C(=O)Nc2ccc(OC)cc2OC)C1,"inconclusive: 25.1 µM [inhibitor, partial curve]"
3,Cc1cccc(C2c3[nH]c4ccccc4c3CCN2C(=O)c2noc3c2CCCC3)n1 (configuration not stated),"inconclusive: 20 µM [inhibitor, full curve, poor fit]"
4,Nc1ccc2oc(-c3ccccc3Cl)cc(=O)c2c1O,"inconclusive: 7.94 µM [inhibitor, full curve]"
5,Cc1snc(S(=O)(=O)/C(C#N)=N/Nc2ccc(C(F)(F)F)cc2)c1C#N,"inconclusive: 44.7 µM [inhibitor, partial curve]"
6,CCCCn1c(N)c(N(CC(C)C)C(=O)COC(=O)c2ccccc2NCCO)c(=O)[nH]c1=O,active: 70.8 µM
7,CC(=C\c1ccccc1)/C=C1/SC(=S)N(CCC(=O)Nc2ccccn2)C1=O,"inconclusive: 79.4 µM [inhibitor, partial curve]"
8,CCN1CCN(CCCNC(=O)Cn2c(-c3cccs3)cc3cc(F)ccc32)CC1,inactive
9,CC[n+]1c(-c2ccccc2)csc1Nc1c(C)n(C)n(-c2ccccc2)c1=O,"inconclusive: 44.7 µM [inhibitor, partial curve]"
10,O=C(CCS(=O)(=O)c1cc2c3c(c1)CCN3C(=O)CC2)Nc1cccc(Br)c1,inactive
11,COc1cccc2cc(C(=O)NCCN3CCOCC3)oc12,inactive
12,CC1CCc2sc(C(=O)Nc3ccc(N4CCOCC4)cc3)cc2C1 (configuration not stated),"inconclusive: 39.8 µM [inhibitor, partial curve]"
13,Cc1ccc(N=c2ssnc2Cl)cc1,active: 44.7 µM
14,CCOc1ccc(CCNC(=O)c2ccc3c(c2)N(Cc2ccccc2F)C(=O)c2ccccc2S3=O)cc1OCC (configuration not stated),"inconclusive: 25.1 µM [inhibitor, single point]"
15,COc1ccc(-c2nc3cccc(C)n3c2NCC2CCCO2)cc1O (configuration not stated),"inconclusive: 70.8 µM [inhibitor, partial curve]"
16,O=C(/C=C/c1ccco1)N1CCN(C/C=C/c2ccccc2)CC1,"inconclusive: 79.4 µM [inhibitor, single point]"
17,COc1ccc(-n2cnc3ccccc32)cc1,inactive
18,Cc1ccc(S(=O)(=O)C(CNC(=O)C(=O)NCCc2ccc(Cl)cc2)c2cccs2)cc1 (configuration not stated),inactive
19,Cc1c2c(=O)n(-c3nc4ccccc4s3)nc-2cc(O)n1Cc1ccccc1,active: 39.8 µM
20,CCOc1ccc(CCNC(=O)Cn2cccc2C(=O)c2ccccc2C)cc1OCC,"inconclusive: 79.4 µM [inhibitor, single point]"
21,Cc1ccc(C)c(OCCn2cc(/C=C(\C#N)C(=O)NCC3CCCO3)c3ccccc32)c1 (configuration not stated),inactive
22,CC(C)[C@@H]1NC(=O)c2cc([N+](=O)[O-])cc(I)c2NCC[C@@H](C(N)=O)NC(=O)[C@H](CO)NC1=O,"inconclusive: 79.4 µM [inhibitor, single point]"
23,CC(C)(CS(=O)(=O)[O-])NC(=O)CC[N+](C)(C)CCO,active: 2.82 µM
